Laboratory results from publication PMC4336329 (PLoS ONE, 2015).
About 2,200 (0.71%) of roughly 310,000 compounds showed an effect of 50% or more. The effect is printed as a negative number. The list shows a part of the results.

The compounds below were run against human ether-à-go-go-related gene (hERG) potassium channel (human, UniProt Q12809) (assay: primary screen, population patch clamp on CHO cells stably expressing hERG).
human ether-à-go-go-related gene (hERG) potassium channel, sequence (Q12809 whole entry, looked up): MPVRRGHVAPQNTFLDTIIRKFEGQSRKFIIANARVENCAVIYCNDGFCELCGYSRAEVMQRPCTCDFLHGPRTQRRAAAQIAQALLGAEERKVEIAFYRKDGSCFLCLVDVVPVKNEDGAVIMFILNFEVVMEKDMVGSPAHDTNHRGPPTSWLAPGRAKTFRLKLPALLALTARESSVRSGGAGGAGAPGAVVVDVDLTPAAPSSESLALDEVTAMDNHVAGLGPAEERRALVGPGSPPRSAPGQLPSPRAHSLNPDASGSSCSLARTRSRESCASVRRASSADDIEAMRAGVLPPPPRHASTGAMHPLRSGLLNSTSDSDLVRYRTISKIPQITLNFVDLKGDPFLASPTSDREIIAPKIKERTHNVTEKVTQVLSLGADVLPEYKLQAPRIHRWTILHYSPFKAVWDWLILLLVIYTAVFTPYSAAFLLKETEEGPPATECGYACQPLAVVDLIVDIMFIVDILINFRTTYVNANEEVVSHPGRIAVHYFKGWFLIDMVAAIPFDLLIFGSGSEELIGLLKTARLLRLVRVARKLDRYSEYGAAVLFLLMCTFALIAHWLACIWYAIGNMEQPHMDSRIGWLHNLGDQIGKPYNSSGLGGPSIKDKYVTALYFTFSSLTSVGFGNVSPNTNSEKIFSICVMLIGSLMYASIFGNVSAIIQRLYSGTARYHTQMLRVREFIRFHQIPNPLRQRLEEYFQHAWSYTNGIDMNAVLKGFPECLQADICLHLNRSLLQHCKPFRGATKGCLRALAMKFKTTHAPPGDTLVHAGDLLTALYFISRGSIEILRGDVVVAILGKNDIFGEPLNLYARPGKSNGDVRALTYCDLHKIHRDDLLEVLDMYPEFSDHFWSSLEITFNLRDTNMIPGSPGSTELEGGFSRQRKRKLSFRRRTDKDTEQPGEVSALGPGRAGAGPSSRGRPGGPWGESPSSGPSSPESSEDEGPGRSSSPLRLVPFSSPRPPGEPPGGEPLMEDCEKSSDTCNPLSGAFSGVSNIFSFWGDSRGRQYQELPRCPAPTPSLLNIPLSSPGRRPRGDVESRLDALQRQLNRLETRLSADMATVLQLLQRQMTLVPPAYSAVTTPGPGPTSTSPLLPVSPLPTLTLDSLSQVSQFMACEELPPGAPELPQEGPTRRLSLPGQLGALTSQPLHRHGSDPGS

Structure (SMILES)	hERG current change (%, negative = inhibition) at 1uM [%]
COc1ccc(S(=O)(=O)Nc2cccc(S(=O)(=O)N3CCCCCC3)c2)cc1	0.78
CC(=O)Nc1ccc(OCC(=O)N2CCc3ccccc3C2)cc1	17
CCc1ccc(NC(=O)NCc2cccnc2)cc1	7.5
COc1cc(C2(c3ccc(O)c(OC)c3)C(=O)Nc3c(Br)cc(Br)cc32)ccc1O	20.4
Cc1ccc(C(=O)CN(CCC(=O)O)S(=O)(=O)c2ccc([N+](=O)[O-])cc2)cc1	5.9
CCOc1ccc(CNC(=O)C(C)n2nc(C)c3c(C)n(-c4ccccc4)nc3c2=O)cc1 (centres unmarked)	4.25
CC1CCCCN1C(=O)CSCC(=O)Nc1nc(-c2cccs2)cs1 (centres unmarked)	10.4
O=C(NC1CCCCC1)N(CCN1CCOCC1)Cc1cc2cc3c(cc2[nH]c1=O)OCCO3	2.23
Cn1c(CCCNC(=O)c2cccs2)nc2ccccc21	7.01
Cc1ccc(CNC(=O)C2C3C=CC(C3)C2C(=O)O)cc1 (centres unmarked)	6.82
CC(CCc1ccccc1)NCc1ccc(Cl)cc1Cl.O=C(O)C(=O)O (centres unmarked)	10.1
COc1ccc(-n2c(C)cc(-c3csc(NC(=O)c4ccc(S(=O)(=O)N(C)C)cc4)n3)c2C)cc1	12.3
O=C(c1ccc([N+](=O)[O-])c(CS(=O)(=O)c2ccc(Cl)cc2)c1)N1CCCC1	-8.55
O=C(Nc1nc(-c2cccs2)c(-c2ccccc2)s1)c1ccco1	10.7
O=C(Cn1nc2n(c1=O)-c1ccccc1SC2)N/N=C/c1ccncc1	3.06
CCOc1ccc(/C=C/c2nc(C#N)c(NCCCOC)o2)cc1	16.4
CC(C)c1cc(CNC(=O)c2ccc(OC3CCN(Cc4ccccn4)CC3)cc2)on1	15.6
COc1ccc(C(=O)Nc2ccc3[nH]ccc3c2)cc1OC	5.08
Cc1ccc(-c2nc3ccccc3c(=O)n2NC(=S)N(C)C)cc1	12.3
COc1ccccc1OCCNC(=O)CN(c1cccc(C)c1)S(=O)(=O)c1ccccc1	-7.19
Cc1cccc(NC(=S)NC(=O)c2ccc(Br)o2)c1C	-11.8
Br.COc1ccc(Nc2nc(-c3ccc(OC)cc3)cs2)cc1	8.46
COc1ccc(Cl)cc1S(=O)(=O)N1CCCC(C(=O)NCC(N)=O)C1 (centres unmarked)	-2.92

Structure (SMILES)	hERG current change (%, negative = inhibition) at 1uM [%]
O=C(NCc1ccc2c(c1)OCO2)c1ccc(Br)cc1	5.47
CN1C(=O)C2C[C@@]3(Br)c4ccccc4N(OOSc4ccccc4)[C@H]3N2C(=O)[C@@H]1Cc1ccccc1 (some centres unmarked)	9.7
O=C1/C(=C/c2ccncc2)N2CCC1CC2	10.3
O=C(O)Cn1c2c(c3ccccc31)CCCC2	13.7
COc1ccc(/C=N/NC(=S)Nc2ccccc2)cc1COc1ccc(F)cc1	2.01
COc1cc(C2c3[nH]c4ccccc4c3C[C@H]3C(=O)N(C4CC4)CC(=O)N23)ccc1OC(C)C (some centres unmarked)	9.23
O=C(CSc1nc2c(sc3ccccc32)c(=O)n1Cc1ccccc1)NCC1CCCO1 (centres unmarked)	22.3
O=C(Nc1cccc(-c2cn3cccnc3n2)c1)c1ccco1	9.68
CC(C)(C)c1ccc(S(=O)(=O)NCC(=O)N2CCCC2)cc1	9.26
Cc1cc(-c2ccccc2)nc(N(C)NC(=O)c2ccc(Cl)cc2)c1S(C)(=O)=O	-1.97
O=S(=O)(c1ccc(F)cc1)c1nc(-c2ccco2)oc1Nc1ccccc1	2.1
c1ccc2oc(C3=NNC(=NC4CC4)SC3)cc2c1	-19.1
c1ccc(Cc2nn3c(Cn4cnc5ccccc54)nnc3s2)cc1	5.69
NC(=O)c1ccccc1NCC(=O)c1ccc(F)cc1	-6.14
Cc1ccccc1C(=O)c1cccn1CC(=O)NCc1ccc(Cl)cc1	12.4
CC1=C(C)CC(C(=O)NCC(=O)c2ccccc2)C(C(=O)O)C1 (centres unmarked)	5.67
CN(C)c1ccc(N/C=C/C(=O)c2ccccc2)cc1	9.42
CCN(c1ccc(OC)cc1)S(=O)(=O)c1csc(C(N)=O)c1	14
CCOc1ccc2c(c1)ncn2Cc1ccccc1	3.15
O=C(c1ccco1)c1cc2c(ccc3ccccc32)oc1=O	15.1
COc1ccc(OC)c(NC(=O)CNC(c2ccccc2)c2ccccc2)c1	12.8
COc1ccc(NC(=O)c2nn(C)c(=O)c3ccccc23)cc1S(=O)(=O)Nc1ccccc1Cl	13
Cn1c(=O)c2c(nc(N3CCOCC3)n2CCSc2ncccn2)n(C)c1=O	4.67

Structure (SMILES)	hERG current change (%, negative = inhibition) at 1uM [%]
CCN(CC)C(=O)N1CCN(C(=O)N2CCOCC2)CC1	8.81
O=C1CCC(C(=O)O)(c2ccccc2)C1 (centres unmarked)	12.2
COC(=O)c1cc(Br)c(=O)n(CC(C)C)c1	12.4
Cc1ccc(NC(=O)c2ccc([N+](=O)[O-])o2)cc1C	10.5
Cc1cc(/C=N/Nc2ncnc(N)c2[N+](=O)[O-])c(C)n1-c1ccccc1	9.92
COc1ccccc1N(C)S(=O)(=O)c1ccc(C(=O)NCc2ccc3c(c2)OCO3)cc1	7.93
CC(C)(C)NC(=O)C(c1ccc(F)cc1)N(Cc1ccco1)C(=O)CCC(=O)Nc1nccs1 (centres unmarked)	8.86
Cc1ccc(SCc2nc3ccccc3n2CC(=O)Nc2c(C)cccc2C)cc1	6.88
S=C(NCc1ccc2c(c1)OCO2)NCc1ccc2c(c1)OCO2	-1.56
O=C(Cn1nc(-c2ccc(F)cc2)ccc1=O)Nc1ccc2c(c1)OCCO2	12.8
O=C(CN1CCCc2ccccc21)NCc1ccccc1Cl	14
O=C(Cc1ccccc1F)Nc1cc(S(=O)(=O)N2CCCC2)ccc1Cl	7.57
CC(OC(=O)c1ccccc1CCc1ccccc1)C(N)=O (centres unmarked)	9.08
O=C(O)c1cccc(S(=O)(=O)N2CCCC2)c1	-9.91
CN1CCN(Cc2nc(-c3cccs3)no2)CC1c1ccccc1 (centres unmarked)	7.35
CN=C(Nc1ccc(C(=O)OC)cc1)SC1CC(=O)N(c2ccccc2F)C1=O (centres unmarked)	9.15
Cn1c(Cc2csc(N)n2)nnc1SCC(=O)NCc1ccccc1	8.74
CC(=O)Oc1ccc(C)cc1-n1nc2ccccc2n1	12.2
COC(=O)c1ccccc1S(=O)(=O)N1CCC(C(=O)NC2CCCCC2)CC1	6.59
c1ccc(Oc2cccc(Oc3ccccc3)n2)cc1	19.4
COc1ccc(S(=O)(=O)n2nc(-c3ccc(Cl)cc3)cc2N)cc1	7.28
Cc1cccc(NC(=O)COC(=O)c2cc3ccccc3oc2=O)c1	2.1
[O-][n+]1ccc(OCc2ccccc2)cc1	5

Structure (SMILES)	hERG current change (%, negative = inhibition) at 1uM [%]
CN(C)c1ccc(S(=O)(=O)N2CCCCC2)cc1NC(=O)CCNC(=O)c1ccc(Cl)cc1	-3.82
Cc1ccccc1N(CC(=O)Nc1ccccc1C(=O)O)S(C)(=O)=O	10.5
CCN(CC)S(=O)(=O)c1ccc(N2CCOCC2)c(NC(=O)c2ccc3ccccc3c2)c1	17
Cc1[nH]c2ccccc2c1C(=O)C(=O)Nc1ccc2c(c1)OCO2	16.2
O=C(NCCCN1CCCC1)c1ccc2c(c1)N(Cc1ccccc1F)C(=O)c1ccccc1S2(=O)=O	14.4
O=C(COC(=O)/C=C/c1cn(-c2ccccc2)nc1-c1cccnc1)Nc1ccc(Cl)cc1Cl	3.67
ClCCOCOCCCl	15.3
OCCNc1ncnc2c1ncn2Cc1ccccc1	-5.06
Cc1ccc(NC(=O)Cn2ncc3ccccc32)c(Cl)c1	12.3
COC(=O)C1=C(c2cccc(OC)c2OC)C[C@@H]2CC[C@H]1N2C(=O)NCCNC(C)=O	10.2
COc1ccc(C2=NNC(c3cccnc3)=Nc3ccccc32)cc1	-1.11
Cc1nn(-c2ccccc2)c2sc(C(=O)OCN3C(=O)c4ccccc4C3=O)cc12	0.937
Cc1ccc(C(=O)NCCC(=O)N2CCC3(CC2)NCCc2[nH]cnc23)cc1	4.25
CCOc1ccc(OCc2ccc(C(=O)N(CC)CC)cc2)cc1	12
CCC(CC)C(=O)Nc1ccccc1NC(C)=O	13.3
CS(=O)(=O)c1ccc(Cl)c(NC(=O)COC(=O)c2ccc(-n3cnnn3)cc2)c1	7.31
S=c1[nH]nc(Cc2cccc3ccccc23)o1	15.1
Nc1nc2c(Cl)cc(Cl)cc2s1	13.8
CC1(c2nnc(-c3cccc(Cl)c3)o2)CC(c2cccc(F)c2)=NO1 (centres unmarked)	11.9
O=C(NC(=S)Nc1cccnc1)c1ccccc1	12.9
